Measurements reported in PubChem BioAssay (NCI).
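1) Cells in 96-well plates. 2) Compound, 48 h, 5 concentrations. 3) Linear interpolation between surrounding doses. 4) Unreached endpoint = highest concentration. The concentration for full growth arrest is given as TGI.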 Not every entry of the source has a single result; some have several. This list holds those alone. The source may hold further records. Records of one sample usually come from different ranges of test concentrations, which the source does not state; a value can be the end of its range.

Test system: MDA-MB-468 breast
Assay: NCI-60 cell line screen, 48 h

## COc1ccc2c(c1)nnn1c3ncccc3c(N=O)c21
  TGI: 141 nM and 15.2 µM
